Measurements as given in the supplement of paper PMC8728848.
The other results are listed elsewhere or left out.

How the values were obtained:
Experiment in all cases: glycan array binding signal (z-score within array); higher = stronger binding
Conditions in all cases: glycan notation: IUPAC condensed, linker removed
GalNAc(b1-3)GalNAc = target: GalNAc(b1-3)GalNAc
How it was run: (§1)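 Glycan array binding is given as a within-array Z-score, which can be read as non-binding when negative. The arrays, 3228 of them, came from the Consortium for Functional Glycomics database and were retained only where the protein sequence was available. Z-scores were averaged across arrays of the same protein sequence at different concentrations or buffers and across linkers.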

GalNAc(b1-4)GlcNAc = target: GalNAc(b1-4)GlcNAc
How it was run: as §1

Glc(a1-4)Glc = target: Glc(a1-4)Glc
How it was run: as §1

Glc(a1-6)Glc(a1-6)Glc = target: Glc(a1-6)Glc(a1-6)Glc
How it was run: as §1

Glc(b1-4)Glc = target: Glc(b1-4)Glc
How it was run: as §1

Glc(b1-6)Glc = target: Glc(b1-6)Glc
How it was run: as §1

GlcA(b1-3)Gal = target: GlcA(b1-3)Gal
How it was run: as §1

GlcA(b1-3)GlcNAc = target: GlcA(b1-3)GlcNAc
How it was run: as §1

GlcA(b1-6)Gal = target: GlcA(b1-6)Gal
How it was run: as §1

[1] = target: GlcNAc(a1-3)Gal(b1-4)GlcNAc
How it was run: as §1

[2] = target: GlcNAc(a1-6)Gal(b1-4)GlcNAc
How it was run: as §1

[3] = target: GlcNAc(b1-2)Gal(b1-3)GalNAc
How it was run: as §1

[4] = target: GlcNAc(b1-2)Man(a1-3)[GlcNAc(b1-2)Man(a1-6)]Man(b1-4)GlcNAc(b1-4)GlcNAc
How it was run: as §1

GlcNAc(b1-3)Gal = target: GlcNAc(b1-3)Gal
How it was run: as §1

[5] = target: GlcNAc(b1-3)Gal(b1-3)GalNAc
How it was run: as §1

GlcNAc(b1-3)Gal(b1-4)Glc = target: GlcNAc(b1-3)Gal(b1-4)Glc
How it was run: as §1

[6] = target: GlcNAc(b1-3)Gal(b1-4)GlcNAc
How it was run: as §1

[7] = target: GlcNAc(b1-3)Gal(b1-4)GlcNAc(b1-3)Gal(b1-4)GlcNAc
How it was run: as §1

GlcNAc(b1-3)GalNAc = target: GlcNAc(b1-3)GalNAc
How it was run: as §1

GlcNAc(b1-3)Man = target: GlcNAc(b1-3)Man
How it was run: as §1

[8] = target: GlcNAc(b1-3)[GlcNAc(b1-4)][GlcNAc(b1-6)]GlcNAc
How it was run: as §1

[9] = target: GlcNAc(b1-3)[GlcNAc(b1-6)]Gal(b1-4)GlcNAc
How it was run: as §1

[10] = target: GlcNAc(b1-3)[GlcNAc(b1-6)]GalNAc
How it was run: as §1

[11] = target: GlcNAc(b1-4)Gal(b1-4)GlcNAc
How it was run: as §1

GlcNAc(b1-4)GlcNAc = target: GlcNAc(b1-4)GlcNAc
How it was run: as §1

[12] = target: GlcNAc(b1-4)GlcNAc(b1-4)GlcNAc
How it was run: as §1

[13] = target: GlcNAc(b1-4)GlcNAc(b1-4)GlcNAc(b1-4)GlcNAc(b1-4)GlcNAc
How it was run: as §1

[14] = target: GlcNAc(b1-4)GlcNAc(b1-4)GlcNAc(b1-4)GlcNAc(b1-4)GlcNAc(b1-4)GlcNAc
How it was run: as §1

[15] = target: GlcNAc(b1-4)[GlcNAc(b1-6)]GalNAc
How it was run: as §1

[16] = target: GlcNAc(b1-6)Gal(b1-4)GlcNAc
How it was run: as §1

GlcNAc(b1-6)GalNAc = target: GlcNAc(b1-6)GalNAc
How it was run: as §1

GlcNAc3Prop(b1-4)GlcNAc = target: GlcNAc3Prop(b1-4)GlcNAc
How it was run: as §1

Kdn(a2-3)Gal(b1-3)GlcNAc = target: Kdn(a2-3)Gal(b1-3)GlcNAc
How it was run: as §1

Kdn(a2-3)Gal(b1-4)GlcNAc = target: Kdn(a2-3)Gal(b1-4)GlcNAc
How it was run: as §1

[17] = target: Man(a1-2)Man(a1-2)Man(a1-3)Man
How it was run: as §1

[18] = target: Man(a1-2)Man(a1-2)Man(a1-6)[Man(a1-3)]Man
How it was run: as §1

Man(a1-2)Man(a1-3)Man = target: Man(a1-2)Man(a1-3)Man
How it was run: as §1

[19] = target: Man(a1-2)Man(a1-3)[Man(a1-2)Man(a1-6)]Man
How it was run: as §1

[20] = target: Man(a1-2)Man(a1-3)[Man(a1-2)Man(a1-6)]Man(a1-6)[Man(a1-2)Man(a1-2)Man(a1-3)]Man
How it was run: as §1

[21] = target: Man(a1-2)Man(a1-3)[Man(a1-2)Man(a1-6)]Man(a1-6)[Man(a1-2)Man(a1-2)Man(a1-3)]Man(b1-4)GlcNAc(b1-4)GlcNAc
How it was run: as §1

[22] = target: Man(a1-2)Man(a1-3)[Man(a1-6)]Man(a1-6)[Man(a1-2)Man(a1-3)]Man(b1-4)GlcNAc(b1-4)GlcNAc
How it was run: as §1

[23] = target: Man(a1-2)Man(a1-6)[Man(a1-3)]Man(a1-6)[Man(a1-2)Man(a1-2)Man(a1-3)]Man
How it was run: as §1

[24] = target: Man(a1-2)Man(a1-6)[Man(a1-3)]Man(a1-6)[Man(a1-2)Man(a1-2)Man(a1-3)]Man(b1-4)GlcNAc(b1-4)GlcNAc
How it was run: as §1

Man(a1-3)[Man(a1-6)]Man = target: Man(a1-3)[Man(a1-6)]Man
How it was run: as §1

[25] = target: Man(a1-3)[Man(a1-6)]Man(a1-6)[Man(a1-2)Man(a1-3)]Man(b1-4)GlcNAc(b1-4)GlcNAc
How it was run: as §1

B1: Gal 8 (Homo sapiens), O00214 (protein)
chain: MMLSLNNLQNIIYNPVIPFVGTIPDQLDPGTLIVIRGHVPSDADRFQVDLQNGSSMKPRADVAFHFNPRFKRAGCIVCNTLINEKWGREEITYDTPFKREKSFEIVIMVKDKFQVAVNGKHTLLYGHRIGPEKIDTLGIYGKVNIHSIGFSFSSDLQSTQASSLELTEISRENVPKSGTPQLPSNRGGDISKIAPRTVYTKSKDSTVNHTLTCTKIPPMNYVSKRLPFAARLNTPMGPGRTVVVKGEVNANAKSFNVDLLAGKSKDIALHLNPRLNIKAFVRNSFLQESWGEEERNITSFPFSPGMYFEMIIYCDVREFKVAVNGVHSLEYKHRFKELSSIDTLEINGDIHLLEVRSW
For B1, which “glycan array binding signal (z-score)” value (GalNAc(b1-3)GalNAc) is on record?
The value was -0.451.

And the “glycan array binding signal (z-score)” value (GalNAc(b1-4)GlcNAc)?
The value was -0.415.

What about the “glycan array binding signal (z-score)” value (Glc(a1-4)Glc) of the same binder?
Its value is -0.443.

What about the “glycan array binding signal (z-score)” value (Glc(a1-6)Glc(a1-6)Glc) of the same binder?
The value was -0.438.

What about the “glycan array binding signal (z-score)” value (Glc(b1-4)Glc) of the same binder?
The value was -0.447.

And the “glycan array binding signal (z-score)” value (Glc(b1-6)Glc)?
The value was -0.441.

And the “glycan array binding signal (z-score)” value (GlcA(b1-3)Gal)?
The value was -0.451.

And the “glycan array binding signal (z-score)” value (GlcA(b1-3)GlcNAc)?
Its value is -0.418.

What about the “glycan array binding signal (z-score)” value (GlcA(b1-6)Gal) of the same binder?
Its value is -0.407.

What about the “glycan array binding signal (z-score)” value [1] of the same binder?
The value was 0.553.

What about the “glycan array binding signal (z-score)” value [2] of the same binder?
The value was -0.436.

What about the “glycan array binding signal (z-score)” value [3] of the same binder?
The value was 0.146.

What about the “glycan array binding signal (z-score)” value [4] of the same binder?
Its value is -0.432.

What about the “glycan array binding signal (z-score)” value (GlcNAc(b1-3)Gal) of the same binder?
The value was -0.434.

What about the “glycan array binding signal (z-score)” value [5] of the same binder?
Its value is 0.26.

What about the “glycan array binding signal (z-score)” value (GlcNAc(b1-3)Gal(b1-4)Glc) of the same binder?
Its value is 0.234.

And the “glycan array binding signal (z-score)” value [6]?
Its value is 0.315.

What about the “glycan array binding signal (z-score)” value [7] of the same binder?
Its value is 1.65.

What about the “glycan array binding signal (z-score)” value (GlcNAc(b1-3)GalNAc) of the same binder?
The value was -0.45.

What about the “glycan array binding signal (z-score)” value (GlcNAc(b1-3)Man) of the same binder?
Its value is -0.427.

What about the “glycan array binding signal (z-score)” value [8] of the same binder?
Its value is -0.435.

What about the “glycan array binding signal (z-score)” value [9] of the same binder?
The value was -0.427.

And the “glycan array binding signal (z-score)” value [10]?
The value was -0.455.

And the “glycan array binding signal (z-score)” value [11]?
The value was -0.425.

What about the “glycan array binding signal (z-score)” value (GlcNAc(b1-4)GlcNAc) of the same binder?
Its value is -0.449.

And the “glycan array binding signal (z-score)” value [12]?
The value was -0.456.

What about the “glycan array binding signal (z-score)” value [13] of the same binder?
The value was -0.436.

What about the “glycan array binding signal (z-score)” value [14] of the same binder?
The value was -0.451.

What about the “glycan array binding signal (z-score)” value [15] of the same binder?
Its value is -0.415.

And the “glycan array binding signal (z-score)” value [16]?
The value was -0.425.

And the “glycan array binding signal (z-score)” value (GlcNAc(b1-6)GalNAc)?
Its value is -0.427.

And the “glycan array binding signal (z-score)” value (GlcNAc3Prop(b1-4)GlcNAc)?
Its value is -0.419.

And the “glycan array binding signal (z-score)” value (Kdn(a2-3)Gal(b1-3)GlcNAc)?
Its value is 0.418.

And the “glycan array binding signal (z-score)” value (Kdn(a2-3)Gal(b1-4)GlcNAc)?
Its value is -0.085.

And the “glycan array binding signal (z-score)” value [17]?
Its value is -0.454.

What about the “glycan array binding signal (z-score)” value [18] of the same binder?
Its value is -0.418.

What about the “glycan array binding signal (z-score)” value (Man(a1-2)Man(a1-3)Man) of the same binder?
The value was -0.454.

What about the “glycan array binding signal (z-score)” value [19] of the same binder?
Its value is -0.431.

What about the “glycan array binding signal (z-score)” value [20] of the same binder?
Its value is -0.407.

And the “glycan array binding signal (z-score)” value [21]?
The value was -0.448.

And the “glycan array binding signal (z-score)” value [22]?
Its value is -0.395.

And the “glycan array binding signal (z-score)” value [23]?
The value was -0.423.

And the “glycan array binding signal (z-score)” value [24]?
Its value is -0.408.

And the “glycan array binding signal (z-score)” value (Man(a1-3)[Man(a1-6)]Man)?
Its value is -0.435.

What about the “glycan array binding signal (z-score)” value [25] of the same binder?
The value was -0.459.
